Data as given in patent publication US20110190235A1, “BORON-CONTAINING SMALL MOLECULES AS ANTIPROTOZOAL AGENTS” (Anacor Pharmaceuticals, Inc., priority 2009, published 2011).

Tested on: LAB 110 Eatro strain of T. b. brucei
Test: Acute Murine Model A
Settings: for Mean Survival Days: 4 days, BID, orally
Protocol: Female Swiss Webster mice were inoculated with 250,000 parasites of the LAB 110 Eatro strain of T. b. brucei. 24 hrs post-infection, treatment was initiated BID for 4 days with 20 mg/kg/dose (40 mg/kg/day) intraperitoneally (IP) or orally (P0), 5 mg/kg BID or 10 mg/kg BID orally (P0). N=3 mice/group. Mice were monitored for 30 days for survival. Pentamidine at 2 mg/kg IP was used as the positive control. After 10 days, 0% of the untreated mice were parasite free. After 10 days, 0% of mice treated with 6-(4-chlorophenylsulfinyl)benzo[c][1,2]oxaborol-1(3H)-ol were parasite free. After 30 days, 100% of mice treated with 10 mg/kg BID of N-(1-hydroxy-1,3-dihydrobenzo[c][1,2]oxaborol-6-yl)-2-(trifluoromethyl)benzamide were parasite free.

Structure (SMILES)	Mean Survival Days (10 mg/kg)	other results
[O-][S+](c1ccc(Cl)cc1)c1ccc2c(c1)B(O)OC2 (stereo not shown) [6-(4-chlorophenylsulfinyl)benzo[c][1,2]oxaborol-1(3H)-ol, reference compound]		mice parasite free after 10 days (after 10 days): 0%
O=C(Nc1ccc2c(c1)B(O)OC2)c1ccccc1C(F)(F)F [N-(1-hydroxy-1,3-dihydrobenzo[c][1,2]oxaborol-6-yl)-2-(trifluoromethyl)benzamide]		mice parasite free after 30 days (10 mg/kg BID, after 30 days): 100%
CC1OB(O)c2cc(NC(=O)c3ccc(F)cc3)ccc21 (stereo not shown) [compound 3, 4-Fluoro-N-(1-hydroxy-3-methyl-1,3-dihydro-benzo[c][1,2]oxaborol-6-yl)-benzamide]	18 days	
CC1OB(O)c2cc(NC(=O)c3ccccc3Cl)ccc21 (stereo not shown) [compound 4, 2-Chloro-N-(1-hydroxy-3-methyl-1,3-dihydro-benzo[c][1,2]oxaborol-6-yl)-benzamide]	>30 days	
COc1ccc(C(=O)Nc2ccc3c(c2)B(O)OC3C)cc1 (stereo not shown) [compound 5, N-(1-Hydroxy-3-methyl-1,3-dihydro-benzo[c][1,2]oxaborol-6-yl)-4-methoxy-benzamide]	>30 days	
CC1OB(O)c2cc(NC(=O)c3ccc(Cl)cc3)ccc21 (stereo not shown) [compound 9, 4-Chloro-N-(1-hydroxy-3-methyl-1,3-dihydro-benzo[c][1,2]oxaborol-6-yl)-benzamide]		Mean Survival Days (20 mg/kg): 8 days
CC1(C)OB(O)c2cc(NC(=O)c3ccccc3Cl)ccc21 [compound 38, 2-Chloro-N-(1-hydroxy-3,3-dimethyl-1,3-dihydro-benzo[c][1,2]oxaborol-6-yl)-benzamide]	9 days	
CC1(C)OB(O)c2cc(NC(=O)c3ccc(F)cc3Cl)ccc21 [compound 69, 2-Chloro-4-fluoro-N-(1-hydroxy-3,3-dimethyl-1,3-dihydro-benzo[c][1,2]oxaborol-6-yl)-benzamide]	>30 days	
CC1(C)OB(O)c2cc(NC(=O)c3ccc(F)cc3C(F)(F)F)ccc21 [compound 82]	>30 days	
O=C(Nc1ccc2c(c1)B(O)OC21CCC1)c1ccc(F)cc1Cl [compound 135]	8 days	
